Paper PMC9911399, “Two distinct binding modes provide the RNA-binding protein RbFox with extraordinary sequence specificity”
Where a chain is given by its changes, count along the chain named. Some of the results follow.

B1: CCUUAUC (DNA:RNA)
RNA: GGGAGACCGGAAUUCAGAUUGUCCCCUUAUCUUAAAUCCCGUCGUAGCCACCA
DNA 1: CAATCTGAATTCCGGTCTCCC
DNA 2: TGGTGGCTACGACGGGATT
B2: UGGCAUC (DNA:RNA)
RNA: B1 RNA with C25U, C26G, U27G, U28C
DNA 1: CAATCTGAATTCCGGTCTCCC
DNA 2: TGGTGGCTACGACGGGATT
B3: AGAUAUG (DNA:RNA)
RNA: B1 RNA with C25A, C26G, U27A, C31G
DNA 1: CAATCTGAATTCCGGTCTCCC
DNA 2: TGGTGGCTACGACGGGATT
B4: GUCGAUU (DNA:RNA)
RNA: B1 RNA with C25G, C26U, U27C, U28G, C31U
DNA 1: CAATCTGAATTCCGGTCTCCC
DNA 2: TGGTGGCTACGACGGGATT
B5: AAAGCGG (DNA:RNA)
RNA: GGGAGACCGGAAUUCAGAUUGUCCAAAGCGGUUAAAUCCCGUCGUAGCCACCA
DNA 1: CAATCTGAATTCCGGTCTCCC
DNA 2: TGGTGGCTACGACGGGATT
B6: UGAAUUG (DNA:RNA)
RNA: B5 RNA with A25U, A26G, G28A, C29U, G30U
DNA 1: CAATCTGAATTCCGGTCTCCC
DNA 2: TGGTGGCTACGACGGGATT
B7: CUAAGUG (DNA:RNA)
RNA: B5 RNA with A25C, A26U, G28A, C29G, G30U
DNA 1: CAATCTGAATTCCGGTCTCCC
DNA 2: TGGTGGCTACGACGGGATT
B8: UUUCUGU (DNA:RNA)
RNA: B5 RNA with A25U, A26U, A27U, G28C, C29U, G31U
DNA 1: CAATCTGAATTCCGGTCTCCC
DNA 2: TGGTGGCTACGACGGGATT
B9: UGCGAAA (DNA:RNA)
RNA: B5 RNA with A25U, A26G, A27C, C29A, G30A, G31A
DNA 1: CAATCTGAATTCCGGTCTCCC
DNA 2: TGGTGGCTACGACGGGATT
B10: UCUUCAU (DNA:RNA)
RNA: B1 RNA with C25U, A29C, U30A, C31U
DNA 1: CAATCTGAATTCCGGTCTCCC
DNA 2: TGGTGGCTACGACGGGATT
B11: GACGACC (DNA:RNA)
RNA: B5 RNA with A25G, A27C, C29A, G30C, G31C
DNA 1: CAATCTGAATTCCGGTCTCCC
DNA 2: TGGTGGCTACGACGGGATT
B12: GAUUCAC (DNA:RNA)
RNA: B1 RNA with C25G, C26A, A29C, U30A
DNA 1: CAATCTGAATTCCGGTCTCCC
DNA 2: TGGTGGCTACGACGGGATT
B13: CACGUCC (DNA:RNA)
RNA: B5 RNA with A25C, A27C, C29U, G30C, G31C
DNA 1: CAATCTGAATTCCGGTCTCCC
DNA 2: TGGTGGCTACGACGGGATT
B14: CAGCCUC (DNA:RNA)
RNA: B1 RNA with C26A, U27G, U28C, A29C
DNA 1: CAATCTGAATTCCGGTCTCCC
DNA 2: TGGTGGCTACGACGGGATT
B15: CUUAGGG (DNA:RNA)
RNA: B5 RNA with A25C, A26U, A27U, G28A, C29G
DNA 1: CAATCTGAATTCCGGTCTCCC
DNA 2: TGGTGGCTACGACGGGATT
B16: GAAAUUU (DNA:RNA)
RNA: B5 RNA with A25G, G28A, C29U, G30U, G31U
DNA 1: CAATCTGAATTCCGGTCTCCC
DNA 2: TGGTGGCTACGACGGGATT
B17: GAUUGUU (DNA:RNA)
RNA: B1 RNA with C25G, C26A, A29G, C31U
DNA 1: CAATCTGAATTCCGGTCTCCC
DNA 2: TGGTGGCTACGACGGGATT
B18: CGGGUUA (DNA:RNA)
RNA: B1 RNA with C26G, U27G, U28G, A29U, C31A
DNA 1: CAATCTGAATTCCGGTCTCCC
DNA 2: TGGTGGCTACGACGGGATT
B19: CAACCUU (DNA:RNA)
RNA: B5 RNA with A25C, G28C, G30U, G31U
DNA 1: CAATCTGAATTCCGGTCTCCC
DNA 2: TGGTGGCTACGACGGGATT
B20: GACCUGA (DNA:RNA)
RNA: B5 RNA with A25G, A27C, G28C, C29U, G31A
DNA 1: CAATCTGAATTCCGGTCTCCC
DNA 2: TGGTGGCTACGACGGGATT
B21: CAUGCGC (DNA:RNA)
RNA: B5 RNA with A25C, A27U, G31C
DNA 1: CAATCTGAATTCCGGTCTCCC
DNA 2: TGGTGGCTACGACGGGATT
B22: GUGGGCC (DNA:RNA)
RNA: B5 RNA with A25G, A26U, A27G, C29G, G30C, G31C
DNA 1: CAATCTGAATTCCGGTCTCCC
DNA 2: TGGTGGCTACGACGGGATT
B23: CCGGCCG (DNA:RNA)
RNA: B5 RNA with A25C, A26C, A27G, G30C
DNA 1: CAATCTGAATTCCGGTCTCCC
DNA 2: TGGTGGCTACGACGGGATT
B24: GCUUAUC (DNA:RNA)
RNA: B1 RNA with C25G
DNA 1: CAATCTGAATTCCGGTCTCCC
DNA 2: TGGTGGCTACGACGGGATT
B25: AUCUCUU (DNA:RNA)
RNA: B5 RNA with A26U, A27C, G28U, G30U, G31U
DNA 1: CAATCTGAATTCCGGTCTCCC
DNA 2: TGGTGGCTACGACGGGATT
B26: UUCCCAA (DNA:RNA)
RNA: B5 RNA with A25U, A26U, A27C, G28C, G30A, G31A
DNA 1: CAATCTGAATTCCGGTCTCCC
DNA 2: TGGTGGCTACGACGGGATT
B27: UUCUUGA (DNA:RNA)
RNA: B5 RNA with A25U, A26U, A27C, G28U, C29U, G31A
DNA 1: CAATCTGAATTCCGGTCTCCC
DNA 2: TGGTGGCTACGACGGGATT
B28: CCCGGGG (DNA:RNA)
RNA: B5 RNA with A25C, A26C, A27C, C29G
DNA 1: CAATCTGAATTCCGGTCTCCC
DNA 2: TGGTGGCTACGACGGGATT
B29: AGUCCCA (DNA:RNA)
RNA: B5 RNA with A26G, A27U, G28C, G30C, G31A
DNA 1: CAATCTGAATTCCGGTCTCCC
DNA 2: TGGTGGCTACGACGGGATT
B30: UGGGUAG (DNA:RNA)
RNA: B5 RNA with A25U, A26G, A27G, C29U, G30A
DNA 1: CAATCTGAATTCCGGTCTCCC
DNA 2: TGGTGGCTACGACGGGATT
B31: GACCCCC (DNA:RNA)
RNA: B5 RNA with A25G, A27C, G28C, G30C, G31C
DNA 1: CAATCTGAATTCCGGTCTCCC
DNA 2: TGGTGGCTACGACGGGATT

These binders were tested against T1, RBFOX1 RRM (Homo sapiens, UniProt Q9NWB1 109-208) (assay: EMSA; HiTS-Eq, 1 nM pool, 10 min; buffer printed only for the single-RNA assays: 10 mM Tris pH 7.5, 150 mM NaCl, 3.4 mM EDTA, 0.001% NP-40, 30 C). Settings: tags: His6 N-terminal (pET28a); label: 5' 32P.
T1 sequence: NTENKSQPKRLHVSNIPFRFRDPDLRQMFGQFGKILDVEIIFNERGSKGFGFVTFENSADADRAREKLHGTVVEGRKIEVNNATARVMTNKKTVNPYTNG
Summary of the method: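 Purified RbFox RRM, wild type or mutant, was incubated for 10 min in 50 µL with 1 nM of a 5′-radiolabelled RNA pool carrying 7 randomized nucleotides, whose flanks were annealed to DNA oligonucleotides, over a series of increasing protein concentrations. Unbound RNA was resolved on 8% native PAGE, cut out, reverse-transcribed, barcoded by PCR and sequenced on an Illumina HiSeq 2500. Relative association constants were derived from changes in read counts for each RNA species versus the control reaction and normalised to the cognate motif.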

Row | Binder | binding signal
1 | B1 | 0.00182 KA relative to UGCAUGU
2 | B2 | 0.0211 KA relative to UGCAUGU
3 | B3 | 0.0123 KA relative to UGCAUGU
4 | B4 | 0.0144 KA relative to UGCAUGU
5 | B5 | 0.00783 KA relative to UGCAUGU
6 | B6 | 0.0261 KA relative to UGCAUGU
7 | B7 | 0.0128 KA relative to UGCAUGU
8 | B8 | 0.021 KA relative to UGCAUGU
9 | B9 | 0.0155 KA relative to UGCAUGU
10 | B10 | 0.0051 KA relative to UGCAUGU
11 | B11 | 0.0102 KA relative to UGCAUGU
12 | B12 | 0.00705 KA relative to UGCAUGU
13 | B13 | 0.00296 KA relative to UGCAUGU
14 | B14 | 0.00763 KA relative to UGCAUGU
15 | B15 | 0.00258 KA relative to UGCAUGU
16 | B16 | 0.00539 KA relative to UGCAUGU

Row | Binder | binding signal
17 | B17 | 0.0163 KA relative to UGCAUGU
18 | B18 | 0.0205 KA relative to UGCAUGU
19 | B19 | 0.00101 KA relative to UGCAUGU
20 | B20 | 0.0161 KA relative to UGCAUGU
21 | B21 | 0.0106 KA relative to UGCAUGU
22 | B22 | 0.0185 KA relative to UGCAUGU
23 | B23 | 0.0157 KA relative to UGCAUGU
24 | B24 | 0.00767 KA relative to UGCAUGU
25 | B25 | 0.00168 KA relative to UGCAUGU
26 | B26 | 0.00547 KA relative to UGCAUGU
27 | B27 | 0.0137 KA relative to UGCAUGU
28 | B28 | 0.00905 KA relative to UGCAUGU
29 | B29 | 0.00141 KA relative to UGCAUGU
30 | B30 | 0.0258 KA relative to UGCAUGU
31 | B31 | 0.00672 KA relative to UGCAUGU
